In ChEMBL document CHEMBL4888484, “Replenishing the malaria drug discovery pipeline: Screening and hit evaluation of the MMV Hit Generation Library 1 (HGL1) against asexual blood stage Plasmodium falciparum ,using a nano luciferase reporter read-out” (2022):
The campaign covered roughly 150,000 compounds. About 540 (0.36%) showed an effect of 50% or more. This is one part of the list.

tested on: Plasmodium falciparum; assay: Primary screen in NF54 nanoGlo assay, in single point, at 2uM, 72h; a lower Z score goes with more inhibition; assay type: functional, Erythrocyte; conditions: timepoint 72 hour

First: Cc1ccc(C2CCN(C(=O)CCS(C)(=O)=O)CC2)cn1
Second: O=C(CN1CCC(n2cncn2)CC1)NCc1ccccc1F
The “% Inhibition” value of the first is higher: 13% for the first, -36% for the second.

Going from `O=C(c1ccc[nH]1)N1CCC[C@H](c2[nH]ncc2Cc2ccccc2)C1` to `O=C([C@@H](O)Cc1ccccc1)N1CCC(F)(c2ccccn2)CC1`, the “% Inhibition” value rises from -14% to -6%.

Compared with `O=C(c1nnc2n1CCCC2)N1CCc2[nH]nc(-c3cccc(F)c3F)c2C1`, `C[C@H](NC(=O)c1n[nH]c(=O)c2ccccc12)c1nnc2n1CCCCC2` is higher in “% Inhibition” value: -6% for the first, 1% for the second.

First: Cc1nc2ccccn2c1CC(=O)NCc1cccnc1N1CCOCC1
Second: Cn1nccc1C(=O)NC[C@H]1CCCN(c2ncc(F)c(N3CCOCC3)n2)C1
The “% Inhibition” value of the first is lower: -4% for the first, 10% for the second.

First: CC(C)Cc1nnc(NC(=O)c2cc3c(s2)CCC3)s1
Second: Cc1ccc(-c2cc(C(=O)Nc3nnc(C(C)C)s3)no2)cc1F
The “% Inhibition” value of the first is lower: 3% for the first, 29% for the second.

First: O=C1CCN([C@@H](C(=O)N2CCCC2)c2ccccc2)CCN1
Second: O=C(Nc1ccccc1)c1nnc(C(=O)N2CCC[C@H](C(=O)NC3CCCCCC3)C2)s1
The “% Inhibition” value of the first is higher: -5% for the first, -25% for the second.

Going from `Cc1ncsc1C(=O)N(C)Cc1ccc(-n2cccn2)cc1` to `Cc1ncsc1C(=O)Nc1ccc(=O)n(Cc2ccc(Cl)c(Cl)c2)c1`, the “% Inhibition” value falls from -5% to -13%.

First: CC[C@H](C)N(CCC(=O)Nc1nnc(-c2cccc(OC)c2)s1)C(=O)c1ccc2ccccc2c1
Second: Cc1cc(C)cc(CN2CCCN(c3ccc(NC(=O)OCc4ccccc4)cc3)C2=O)c1
The “% Inhibition” value of the first is lower: -17% for the first, -14% for the second.

First: CN(C(=O)Cc1cnn(-c2ccccc2)c1)[C@H]1CCS(=O)(=O)C1
Second: c1ccc(-c2ncc(CNC[C@H]3CCc4nncn4C3)cn2)cc1
The “% Inhibition” value of the first is lower: -3% for the first, 1% for the second.

First: Cc1cccc(CS(=O)(=O)N(C)c2ccccc2)c1
Second: O=C(NC[C@H](O)c1ccccc1F)c1cccc(-n2cccn2)n1
The “% Inhibition” value of the first is lower: -10% for the first, 0% for the second.

Going from `CC[C@H]1COCCN1C(=O)CCCn1ccnc1` to `C[C@@H](CNC(=O)c1cc2cc(Cl)ccn2n1)N1CCN(C)CC1`, the “% Inhibition” value rises from -9% to 1%.

Going from `CNC(=O)c1ccc(-c2ccc(NC[C@H]3CCCO3)nc2)cc1C` to `Cc1c(NC(=O)COc2ccc(F)c(F)c2)cnn1C1CCCC1`, the “% Inhibition” value falls from -5% to -15%.

Going from `Cc1[nH]ccc1C(=O)Nc1cccc(-c2nncn2C)c1C` to `CCCc1[nH]nc(-c2ccc3c(c2)OCO3)c1NC(=O)c1c(OC)cccc1OC`, the “% Inhibition” value falls from 4% to -2%.

Going from `CC(C)Cc1cc(C(=O)N[C@H]2CC=CC[C@@H]2C(N)=O)nc(N)n1` to `C=C(C)CN(CC)C(=O)C(=O)Nc1ccncc1C`, the “% Inhibition” value falls from -9% to -10%.

Compared with `Cc1ccccc1NC(=O)Nc1cnc(Oc2ccccc2F)nc1`, `c1cncc(-c2cnn3cc(-c4ccncc4)cnc23)c1` is higher in “% Inhibition” value: -10% for the first, -2% for the second.

Going from `Cc1ccc(-c2nn(C(C)(C)C)c3ncnc(NS(=O)(=O)c4ccc(Cl)cc4)c23)cc1` to `CCc1nnc(-c2csc(S(=O)(=O)Nc3ccc(F)c(Cl)c3)c2)o1`, the “% Inhibition” value rises from -3% to 11%.

Compared with `CO[C@H]1C[C@H]2CC[C@@H](C1)N2Cc1noc(-c2ccccc2)n1`, `C[C@@H](c1nc(C2CC2)no1)n1ccc(C(F)(F)F)n1` is higher in “% Inhibition” value: -9% for the first, 8% for the second.

Compared with `O=C(NCCc1cccs1)NC1CCCC1`, `O=C(Nc1cccnc1)NC1CCC2CCCCC2C1` (centres undefined) is higher in “% Inhibition” value: -5% for the first, 4% for the second.

First: N#CCCN1C(=O)C[C@@H](c2ccc(C(F)(F)F)cc2)NC1=O
Second: COc1cccc(Cn2cnn(C(C)(C)C)c2=O)n1
The “% Inhibition” value of the first is lower: -17% for the first, 7% for the second.

Going from `Cc1nn(C/C(N)=N/O)c(C)c1Br` to `O=C(NCCN1CCC[C@H](CO)C1)c1sccc1Cl`, the “% Inhibition” value rises from -39% to 6%.

First: COCCN(CCC#N)c1ccnc(C(C)(C)C)n1
Second: CCC(=O)N1CC[C@H](NC2CCCCCC2)C1
The “% Inhibition” value of the first is lower: -11% for the first, -8% for the second.

Compared with `Cc1ccc(C2CCN(C(=O)CCS(C)(=O)=O)CC2)cn1`, `O=C(CN1CCC(n2cncn2)CC1)NCc1ccccc1F` is higher in Z score: -1.69 for the first, 4.27 for the second.

Compared with `O=C(c1ccc[nH]1)N1CCC[C@H](c2[nH]ncc2Cc2ccccc2)C1`, `O=C([C@@H](O)Cc1ccccc1)N1CCC(F)(c2ccccn2)CC1` is lower in Z score: 1.27 for the first, 0.81 for the second.

First: O=C(c1nnc2n1CCCC2)N1CCc2[nH]nc(-c3cccc(F)c3F)c2C1
Second: C[C@H](NC(=O)c1n[nH]c(=O)c2ccccc12)c1nnc2n1CCCCC2
The Z score of the first is higher: 0.91 for the first, -0.09 for the second.

Going from `Cc1nc2ccccn2c1CC(=O)NCc1cccnc1N1CCOCC1` to `Cn1nccc1C(=O)NC[C@H]1CCCN(c2ncc(F)c(N3CCOCC3)n2)C1`, the Z score falls from 0.77 to -1.41.

Compared with `CC(C)Cc1nnc(NC(=O)c2cc3c(s2)CCC3)s1`, `Cc1ccc(-c2cc(C(=O)Nc3nnc(C(C)C)s3)no2)cc1F` is lower in Z score: -0.48 for the first, -7.07 for the second.

Compared with `O=C1CCN([C@@H](C(=O)N2CCCC2)c2ccccc2)CCN1`, `O=C(Nc1ccccc1)c1nnc(C(=O)N2CCC[C@H](C(=O)NC3CCCCCC3)C2)s1` is higher in Z score: 0.72 for the first, 2.18 for the second.

First: Cc1ncsc1C(=O)N(C)Cc1ccc(-n2cccn2)cc1
Second: Cc1ncsc1C(=O)Nc1ccc(=O)n(Cc2ccc(Cl)c(Cl)c2)c1
The Z score of the first is lower: 0.86 for the first, 1.76 for the second.

Compared with `CC[C@H](C)N(CCC(=O)Nc1nnc(-c2cccc(OC)c2)s1)C(=O)c1ccc2ccccc2c1`, `Cc1cc(C)cc(CN2CCCN(c3ccc(NC(=O)OCc4ccccc4)cc3)C2=O)c1` is higher in Z score: 1.75 for the first, 2.09 for the second.

First: CN(C(=O)Cc1cnn(-c2ccccc2)c1)[C@H]1CCS(=O)(=O)C1
Second: c1ccc(-c2ncc(CNC[C@H]3CCc4nncn4C3)cn2)cc1
The Z score of the first is higher: 0.61 for the first, -0.1 for the second.

Going from `Cc1cccc(CS(=O)(=O)N(C)c2ccccc2)c1` to `O=C(NC[C@H](O)c1ccccc1F)c1cccc(-n2cccn2)n1`, the Z score falls from 1.88 to -0.05.

First: CC[C@H]1COCCN1C(=O)CCCn1ccnc1
Second: C[C@@H](CNC(=O)c1cc2cc(Cl)ccn2n1)N1CCN(C)CC1
The Z score of the first is higher: 1.67 for the first, -0.17 for the second.

First: CNC(=O)c1ccc(-c2ccc(NC[C@H]3CCCO3)nc2)cc1C
Second: Cc1c(NC(=O)COc2ccc(F)c(F)c2)cnn1C1CCCC1
The Z score of the first is lower: 0.85 for the first, 1.9 for the second.

Going from `Cc1[nH]ccc1C(=O)Nc1cccc(-c2nncn2C)c1C` to `CCCc1[nH]nc(-c2ccc3c(c2)OCO3)c1NC(=O)c1c(OC)cccc1OC`, the Z score rises from -0.68 to 0.28.

Going from `CC(C)Cc1cc(C(=O)N[C@H]2CC=CC[C@@H]2C(N)=O)nc(N)n1` to `C=C(C)CN(CC)C(=O)C(=O)Nc1ccncc1C`, the Z score rises from 1.21 to 1.38.

Going from `Cc1ccccc1NC(=O)Nc1cnc(Oc2ccccc2F)nc1` to `c1cncc(-c2cnn3cc(-c4ccncc4)cnc23)c1`, the Z score falls from 1.9 to 0.46.

Compared with `Cc1ccc(-c2nn(C(C)(C)C)c3ncnc(NS(=O)(=O)c4ccc(Cl)cc4)c23)cc1`, `CCc1nnc(-c2csc(S(=O)(=O)Nc3ccc(F)c(Cl)c3)c2)o1` is lower in Z score: 0.35 for the first, -1.29 for the second.

Compared with `CO[C@H]1C[C@H]2CC[C@@H](C1)N2Cc1noc(-c2ccccc2)n1`, `C[C@@H](c1nc(C2CC2)no1)n1ccc(C(F)(F)F)n1` is lower in Z score: 1.19 for the first, -1.55 for the second.

Going from `O=C(NCCc1cccs1)NC1CCCC1` to `O=C(Nc1cccnc1)NC1CCC2CCCCC2C1` (centres undefined), the Z score falls from 0.8 to -0.44.

First: N#CCCN1C(=O)C[C@@H](c2ccc(C(F)(F)F)cc2)NC1=O
Second: COc1cccc(Cn2cnn(C(C)(C)C)c2=O)n1
The Z score of the first is higher: 3.3 for the first, -0.96 for the second.

Compared with `Cc1nn(C/C(N)=N/O)c(C)c1Br`, `O=C(NCCN1CCC[C@H](CO)C1)c1sccc1Cl` is lower in Z score: 4.57 for the first, -0.81 for the second.

First: COCCN(CCC#N)c1ccnc(C(C)(C)C)n1
Second: CCC(=O)N1CC[C@H](NC2CCCCCC2)C1
The Z score of the first is higher: 1.21 for the first, 1.12 for the second.
